# Laboratory results as given in article PMC9911399, “Two distinct binding modes provide the RNA-binding protein RbFox with extraordinary sequence specificity”.
# Where a chain is given by its changes, count along the chain named. Some of the results follow.
# T1: RBFOX1 RRM RbFoxmut (Fox-RRM*) (Homo sapiens, UniProt Q9NWB1 109-208, R118D;E147R;N151S;E152T)
# T1 sequence: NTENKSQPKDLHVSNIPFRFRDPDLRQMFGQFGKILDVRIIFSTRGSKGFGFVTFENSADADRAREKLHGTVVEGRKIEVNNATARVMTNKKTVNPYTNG
# B1: UGAAACA (DNA:RNA)
# RNA: GGGAGACCGGAAUUCAGAUUGUCCUGAAACAUUAAAUCCCGUCGUAGCCACCA
# DNA 1: CAATCTGAATTCCGGTCTCCC
# DNA 2: TGGTGGCTACGACGGGATT
# B2: CACUGAU (DNA:RNA)
# RNA: GGGAGACCGGAAUUCAGAUUGUCCCACUGAUUUAAAUCCCGUCGUAGCCACCA
# DNA 1: CAATCTGAATTCCGGTCTCCC
# DNA 2: TGGTGGCTACGACGGGATT
# B3: ACAGACA (DNA:RNA)
# RNA: B1 RNA with U25A, G26C, A28G
# DNA 1: CAATCTGAATTCCGGTCTCCC
# DNA 2: TGGTGGCTACGACGGGATT
# B4: AACAUAU (DNA:RNA)
# RNA: B2 RNA with C25A, U28A, G29U
# DNA 1: CAATCTGAATTCCGGTCTCCC
# DNA 2: TGGTGGCTACGACGGGATT
# B5: GACUCUA (DNA:RNA)
# RNA: B2 RNA with C25G, G29C, A30U, U31A
# DNA 1: CAATCTGAATTCCGGTCTCCC
# DNA 2: TGGTGGCTACGACGGGATT
# B6: AGACUGU (DNA:RNA)
# RNA: B1 RNA with U25A, A28C, A29U, C30G, A31U
# DNA 1: CAATCTGAATTCCGGTCTCCC
# DNA 2: TGGTGGCTACGACGGGATT
# B7: UUGCGCC (DNA:RNA)
# RNA: B1 RNA with G26U, A27G, A28C, A29G, A31C
# DNA 1: CAATCTGAATTCCGGTCTCCC
# DNA 2: TGGTGGCTACGACGGGATT
# B8: GUCUCAA (DNA:RNA)
# RNA: B2 RNA with C25G, A26U, G29C, U31A
# DNA 1: CAATCTGAATTCCGGTCTCCC
# DNA 2: TGGTGGCTACGACGGGATT
# B9: UCGUUAA (DNA:RNA)
# RNA: B2 RNA with C25U, A26C, C27G, G29U, U31A
# DNA 1: CAATCTGAATTCCGGTCTCCC
# DNA 2: TGGTGGCTACGACGGGATT
# B10: CCGGACG (DNA:RNA)
# RNA: B1 RNA with U25C, G26C, A27G, A28G, A31G
# DNA 1: CAATCTGAATTCCGGTCTCCC
# DNA 2: TGGTGGCTACGACGGGATT
# B11: CAAAUCC (DNA:RNA)
# RNA: B1 RNA with U25C, G26A, A29U, A31C
# DNA 1: CAATCTGAATTCCGGTCTCCC
# DNA 2: TGGTGGCTACGACGGGATT
# B12: GAAGGAG (DNA:RNA)
# RNA: B2 RNA with C25G, C27A, U28G, U31G
# DNA 1: CAATCTGAATTCCGGTCTCCC
# DNA 2: TGGTGGCTACGACGGGATT
# B13: GGAUAGC (DNA:RNA)
# RNA: B1 RNA with U25G, A28U, C30G, A31C
# DNA 1: CAATCTGAATTCCGGTCTCCC
# DNA 2: TGGTGGCTACGACGGGATT
# B14: GUGCUGA (DNA:RNA)
# RNA: B1 RNA with U25G, G26U, A27G, A28C, A29U, C30G
# DNA 1: CAATCTGAATTCCGGTCTCCC
# DNA 2: TGGTGGCTACGACGGGATT
# B15: AUGAUCG (DNA:RNA)
# RNA: B1 RNA with U25A, G26U, A27G, A29U, A31G
# DNA 1: CAATCTGAATTCCGGTCTCCC
# DNA 2: TGGTGGCTACGACGGGATT
# B16: UAUUUGU (DNA:RNA)
# RNA: B2 RNA with C25U, C27U, G29U, A30G
# DNA 1: CAATCTGAATTCCGGTCTCCC
# DNA 2: TGGTGGCTACGACGGGATT
# B17: CAAAGCC (DNA:RNA)
# RNA: B2 RNA with C27A, U28A, A30C, U31C
# DNA 1: CAATCTGAATTCCGGTCTCCC
# DNA 2: TGGTGGCTACGACGGGATT
# B18: GGACGGA (DNA:RNA)
# RNA: B1 RNA with U25G, A28C, A29G, C30G
# DNA 1: CAATCTGAATTCCGGTCTCCC
# DNA 2: TGGTGGCTACGACGGGATT
# B19: GGACUCG (DNA:RNA)
# RNA: B1 RNA with U25G, A28C, A29U, A31G
# DNA 1: CAATCTGAATTCCGGTCTCCC
# DNA 2: TGGTGGCTACGACGGGATT
# B20: ACAUUGG (DNA:RNA)
# RNA: B2 RNA with C25A, A26C, C27A, G29U, A30G, U31G
# DNA 1: CAATCTGAATTCCGGTCTCCC
# DNA 2: TGGTGGCTACGACGGGATT
# Target: T1, RBFOX1 RRM RbFoxmut (Fox-RRM*)
# Test: EMSA; HiTS-Eq, 1 nM pool, 10 min; buffer printed only for the single-RNA assays: 10 mM Tris pH 7.5, 150 mM NaCl, 3.4 mM EDTA, 0.001% NP-40, 30 C
# Details: tags: His6 N-terminal (pET28a); label: 5' 32P
# Procedure, shortened: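 Purified RbFox RRM (wild type or mutant) was equilibrated for 10 min in 50 µL with 1 nM of a 5′-radiolabelled pool of RNA with 7 randomized nucleotides, its flanks annealed to DNA oligonucleotides, across increasing protein concentrations. Free RNA was separated by 8% native PAGE, excised, reverse-transcribed, PCR-barcoded and sequenced on an Illumina HiSeq 2500. Relative association constants came from read-count changes of each variant against the control reaction, normalised to the cognate motif.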
row,Binder,binding signal
1,B1,0.089 KA relative to UGCAUGU
2,B2,0.0795 KA relative to UGCAUGU
3,B3,0.0669 KA relative to UGCAUGU
4,B4,0.08 KA relative to UGCAUGU
5,B5,0.114 KA relative to UGCAUGU
6,B6,0.116 KA relative to UGCAUGU
7,B7,0.192 KA relative to UGCAUGU
8,B8,0.114 KA relative to UGCAUGU
9,B9,0.132 KA relative to UGCAUGU
10,B10,0.0582 KA relative to UGCAUGU
11,B11,0.0732 KA relative to UGCAUGU
12,B12,0.092 KA relative to UGCAUGU
13,B13,0.111 KA relative to UGCAUGU
14,B14,0.122 KA relative to UGCAUGU
15,B15,0.157 KA relative to UGCAUGU
16,B16,0.101 KA relative to UGCAUGU
17,B17,0.0863 KA relative to UGCAUGU
18,B18,0.0628 KA relative to UGCAUGU
19,B19,0.126 KA relative to UGCAUGU
20,B20,0.099 KA relative to UGCAUGU
